Data from PubChem BioAssay AID1508624 (National Center for Advancing Translational Sciences (NCATS), 2021).
Among all 48,000 compounds or so, about 120 (0.25%) were called active. Another 4% or so got no clear call; they are omitted. The call rests on the fitted dose curve; in most records, active means well fitted activation curve with a large enough effect; inconclusive means small, poorly fitted or top-dose-only effect, or another doubt; inactive means no such curve, though single readings can be large or run the other way. The list shows a part of the results.

test: Primary qHTS for Identification of Small Molecule Activators of Huntingtin-Antisense Promoter Activity; settings: HEK293 HTT-AS promoter firefly luciferase reporter, 24 h; series mostly up to 57.5 µM; activity change, positive = activation: at the top concentration; further: nearly all actives have a fitted effect of over 55% in size
Outline: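 Luminescence was read after Dual-Glo reagent and a 10 min room-temperature incubation. Values were normalized to vehicle (0% activity) and zero RLU (-100% activity). Reporter HEK293 cells had been exposed to compounds (up to 57.5 uM final) for 24 h.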

Compound | activity change, positive = activation
CCC(C)NC(=O)c1[nH]c2cc(C)ccc2c1Sc1ccc(Cl)cc1 (configuration not stated) | inactive: 0.858%
Cc1cccc(C)c1OCC(=O)Nc1c(C(=O)c2ccc(Br)cc2)oc2ccccc12 | inactive: 1.17%
O=C(CN1C(=O)COc2ccc(S(=O)(=O)N3CCCCCC3)cc21)N1CCN(c2cccc(C(F)(F)F)c2)CC1 | inactive: -43.5%
COc1ccc2c(CNCCc3cccs3)c(C(=O)O)n(Cc3ccccc3C)c2c1 | inactive: -30.7%
Cc1cccc(N2CCN(C(=O)C3CCN(S(=O)(=O)c4c(C)noc4C)CC3)CC2)c1C | inactive: -38.3%
COc1ccc2oc(=O)c(-c3cn4c(n3)sc3cc(F)ccc34)cc2c1 | inactive: -0.684%
NC(=O)Nc1sc(-c2ccc(F)cc2)cc1C(N)=O | inactive: 21.7%
CCCn1c2ccccc2c2cnn(CC(=O)N(Cc3ccccc3)C(C)C)c(=O)c21 | inactive: -22.5%
CCCCOc1ccc(S(=O)(=O)NCc2csc(-c3ccc(OC)cc3)n2)cc1 | inactive: -27.5%
COc1ccc(NC(=O)Cn2c(=O)n(-c3ccc(C)cc3)c(=O)c3c2cnn3C)cc1 | inactive: -7.81%
O=C(Nc1ccc2nc(SCC(=O)N3CCCC3)sc2c1)c1cccc(Cl)c1 | inactive: -17.1%
CCN1CCCC1=O | inactive: 0.0772%
CC(C)CCNC(=O)C1CCN(c2nc3ccc(Cl)cc3[nH]2)CC1 | inactive: -24.3%
COc1ccc(C)cc1NC(=O)c1ccc(=O)n(Cc2ccccc2)c1 | inactive: -13.7%
CCOC(=O)c1cc2c(=O)n3ccccc3nc2n(Cc2ccco2)c1=NC(=O)c1c(F)cccc1Cl | inactive: -12.2%
CCOC(=O)c1c(C)[nH]c(C)c1S(=O)(=O)N(C)CC(=O)Nc1ccc(C)c(N(C)C)c1 | inactive: -7.19%
COC(=O)c1cc2occc2n1Cc1nc(-c2cccc(Cl)c2)oc1C | inactive: 18.2%
CC(C)(C)c1ccc(C(=O)NC2(C(F)(F)F)C(=O)Nc3c2c(=O)[nH]c(=O)n3-c2ccccc2)cc1 (configuration not stated) | inactive: -10.3%
Cc1cccn2c(=O)c3cc(C(=O)NCc4cccnc4)c(=N)n(CCCO)c3nc12 | inactive: -27.2%

Compound | activity change, positive = activation
COC(=O)c1c(C)oc2ccc(N(C(=O)c3ccncc3)S(=O)(=O)c3c(C)cc(C)cc3C)cc12 | inactive: -37.9%
CN1CCc2nc3sc(C(=O)Nc4ccccc4OC(F)(F)F)c(N)c3cc2C1 | inactive: -14.5%
O=C(NCc1ccccc1)c1nc(S(=O)(=O)Cc2ccccc2)ncc1Cl | inactive: -87%
Cc1sc2ncn(CC(=O)N3CCN(c4ccc(Cl)cc4)CC3)c(=O)c2c1S(=O)(=O)N1CCN(c2ncccn2)CC1 | inactive: -11.9%
Cc1ccc(Cn2c(SCC(=O)C(C)(C)C)nc3ccsc3c2=O)cc1 | inactive: -26.6%
CCCN(CCC)CCNC(=O)c1ccc2c(c1)NC(=O)C(CS(=O)(=O)Cc1cccc(Br)c1)N2 (configuration not stated) | inactive: -9.35%
COc1ccccc1N1CCN(S(=O)(=O)CCNC(=O)COc2ccc(C(C)C)cc2)CC1 | inactive: -9.84%
Cc1sc2ncn(CC(=O)N3CCN(c4cccc(Cl)c4)CC3)c(=O)c2c1S(=O)(=O)N1CCN(c2ncccn2)CC1 | inactive: -17.6%
COc1ccc(NC(=O)c2ccc3c(SCC(=O)O)c4c(nc3c2)CCC4)c(OC)c1 | inactive: 3.99%
CCOc1ccccc1N1CC(c2nc3ccccc3n2Cc2c(C)cc(C)cc2C)CC1=O (configuration not stated) | inactive: 11.3%
COc1ccc(-c2nc(C)c(CCNC(=O)C(=O)Nc3cc(C)cc(C)c3)s2)cc1OC | inactive: 4.09%
N[C@@H](CC(=O)N1CCn2c(nnc2C(F)(F)F)C1)Cc1cc(F)c(F)cc1F | inactive: -2.69%
COc1ccc(-c2nc(SCc3cc(=O)c4cc(C)ccc4[nH]3)n[nH]2)cc1 | inactive: -31.6%
CCOCCCNC(=O)C(c1ccc(OC)cc1)N(Cc1ccc2c(c1)OCO2)C(=O)c1ccccc1O (configuration not stated) | inactive: -11.1%
Cc1ccccc1C(=O)Nc1c(C)nc(Nc2ccccc2)nc1Nc1ccccc1 | inactive: -39.9%
CC(=O)N1c2ccc(S(=O)(=O)NCC3CCC(C(=O)Nc4cccc(C)c4C)CC3)cc2CC1C (configuration not stated) | inactive: -25.5%
Cc1ccc(NC(=O)Cn2nc(C)n3cccc3c2=O)c(C)c1 | inactive: -10.6%
Cc1cccc(N2CCN(C(=O)c3cc4c(=O)n(C)c5ccccc5c4s3)CC2C)c1 (configuration not stated) | inactive: -8.08%
COc1ccc(NC(=O)c2c(C)oc3ccc(O)c(CN4CCCCCC4)c23)cc1Cl | inactive: -30.8%

Compound | activity change, positive = activation
COc1ccc(/C=C/c2nc(C#N)c(NCCc3ccccc3)o2)cc1OC | inactive: -16.6%
COc1ccc(Nc2nc3c(S(=O)(=O)c4ccccc4)nnn3c3ccsc23)cc1OC | inactive: -18.9%
Cc1cccc(C(=O)Nc2c(C(=O)NCc3ccc(Cl)cc3)sc3nc(C)cc(C)c23)c1 | inactive: -50.3%
COc1ccc(OC)c(CCNC(=O)c2cnn(-c3ccccc3Cl)c2C2CCN(C(=O)OC(C)(C)C)CC2)c1 | inactive: -26.9%
COc1ccc(CCNC(=O)c2cn(C)c3ccc(S(=O)(=O)N(C)C4CCCCC4)cc3c2=O)cc1OC | inactive: -1.67% [at 11.5 µM, percent change from vehicle, -100% = no light]
COc1cccc(-n2c(=O)c3c(C)c(C)sc3n(CC(=O)NCc3ccccc3)c2=O)c1 | inactive: 5.53%
COc1ccc(-c2nsc(NC(=O)C(C)Oc3ccc(Cl)c(C)c3)n2)cc1 (configuration not stated) | inactive: -7.46%
Cc1ccc(C)c(Cn2c(=O)cc(C)c3c(C)nn(-c4cccc(F)c4)c32)c1 | inactive: -10.7%
COc1ccc(NC(=O)c2cnc(Nc3ccc(C)c(Cl)c3)c3ccccc23)cc1OC | inactive: -5.05%
O=c1[nH]c(=O)n(C2CCCCC2)c(O)c1C1=Nc2ccccc2SC(c2ccc(Cl)cc2)C1 (configuration not stated) | inactive: -18.3%
COc1ccc2cc3cc(C(=O)N4CCN(c5ccccc5F)CC4)oc3nc2c1 | inactive: -4.32%
CCCOc1ccc(C2CC(=O)Nc3c2c(C)nn3-c2nncc(-c3cccc(OC)c3)n2)cc1OC (configuration not stated) | inactive: -9.49%
COc1cccc(C2=CC(c3cc(Br)ccc3F)n3nnnc3N2)c1 (configuration not stated) | inactive: -43.5%
COc1cccc(OC)c1C(=O)Nc1nc2c(s1)CCc1ccccc1-2 | inactive: -7.7%
Cc1cccc(NC(=O)c2ccc3c(c2)CCN3S(=O)(=O)c2ccccc2)c1C | inactive: -0.809%
Cc1nc2c(c(C)c1CCC(=O)NCc1ccc(Cl)cc1)c(=O)n(C)c(=O)n2C | inactive: -7.56%
COC(=O)c1ccc(NC(=O)N2CCN(Cc3cc(=O)n4nc(-c5ccc(C)cc5)sc4n3)CC2)cc1 | inactive: -1.75%
CC(CNC(=O)CN1C(=O)c2cccnc2Oc2ccc(Cl)cc21)c1ccccc1 (configuration not stated) | inactive: -8.51%
COc1ccc(-c2noc(-c3ccc(N4CCN(c5ccccc5)CC4)c([N+](=O)[O-])c3)n2)cc1 | inactive: -4.23%
